This sample is rich in variants without activity.
B1: TPR 5TU (parent)
chain: GGAUCUUCUCGAUCUAACAAAAAAGACAAAUCUGCCACAAAGCUUGAGAGCAUCUUCGGAUGCAGAGGCGGCAGCCUUCGGUGGCGCGAUAGCGCCAACGUUCUCAACUAUGACACGCAAAACGCGUGCUCCGUUGAAUGGAGUUUAUCAUG

Variants of: B1
Experiment: polymerase ribozyme fitness, log enrichment relative to wild type (log ratio); higher = more active; in vitro selection for triplet polymerase activity
How it was run: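 Each subunit of a heterodimeric triplet polymerase ribozyme was mutagenized into a library by PCR, transcribed, and subjected to one round of in vitro selection, run in triplicate. Libraries were annealed with a biotinylated primer, the partner subunit and triplets, incubated frozen at −7 °C, and extended constructs were gel-excised, captured on streptavidin beads and recovered by RT-PCR. Input and output libraries were sequenced on Illumina, keeping genotypes with ≥10 input reads and ≥1 read per output. Fitness is log base 2 of genotype enrichment divided by wild-type enrichment, from inverse-variance-weighted replicate averages.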

Point of comparison: G42A G59A, “polymerase ribozyme fitness (log ratio)” value -4.11. Against it:
- A41U G124A — higher, -1.29
- A41G C75G G92C U146A — lower, ≤ -4.2
- G42A A73U A150U — lower, ≤ -4.2
- A41C G58C U82G A106G A137G — higher, -2.57
- G42C C43G G88U C123A — lower, ≤ -4.2
- G42A C69U U90G C95G — lower, ≤ -4.2
- G42C G80C C93A U104A C108G U145A U146C — lower, ≤ -4.2
- G42A U44G A49C C95U — lower, ≤ -4.2
- C43A U44A G92U A98C G140C C149G — lower, ≤ -4.2
- G42C C79U G88A A142C — lower, ≤ -4.2
- A41U C85U A91U A107U — lower, ≤ -4.2
- C43U C93U A106U — lower, ≤ -4.2
- C43A C63U C96A U127G — lower, ≤ -4.2
- C43A U55G U56A C57U G83U G84C U102C A115U C116G G117C — lower, ≤ -4.2
- G42A U144A — lower, ≤ -4.2
- A41G G59A A64G G74U C93A C118G G136A — lower, ≤ -4.2
- G42A A73G G80A G94A A119G C129G — lower, ≤ -4.2
- A41G U53A C85A — higher, -2.72
- G42U A122U — lower, ≤ -4.2
- A41G C57G C76U G94A A110G C116G U139G — the same, -4.11
- G42A A47U U53G A64U G94U A120U — lower, ≤ -4.2
- G42A A49C G59A C95A A142C — lower, ≤ -4.2
- A41C U45A G67A G94U A98G C123A G133U G143A — lower, ≤ -4.2
- A41C G94A U104G A113C C116G — lower, ≤ -4.2
- C43A U77G — lower, ≤ -4.2
- C43A A47C G94C C108U A147G C149U — lower, ≤ -4.2
- C43G U53A G84A C96A C116U — lower, ≤ -4.2
- A41U G67C C85A C118G — lower, ≤ -4.2
- C43A G59C C95A C103G C123U — lower, ≤ -4.2
- U44A C54A G92U A107C — lower, ≤ -4.2
- G42C C99U — lower, ≤ -4.2
- G42C C99A — lower, ≤ -4.2
- A41U C63U U102C — higher, -3.6
- G42A C57U A66G C87U C105U — lower, ≤ -4.2
- G42C G94C U111C — lower, ≤ -4.2
- C43A U55A G81U A98U G112C G117A G133C — lower, ≤ -4.2
- G42C U55A C85U — lower, ≤ -4.2
- G42A C63G G70A C87U — lower, ≤ -4.2
- G42C U45A U53G U78A G86C C87A C95U A98G — lower, ≤ -4.2
- A41U C103G A113G C125A — lower, ≤ -4.2
- G42U C103A U104A A107U — lower, ≤ -4.2
- G42A G86A C118A — lower, ≤ -4.2
- U44A G50C C63A G92U C123A — lower, ≤ -4.2
- A41U U61C C79A A110C G143C — lower, ≤ -4.2
- G42C C54G C96G A113U U144C — lower, ≤ -4.2
- A41C U148G — lower, ≤ -4.2
- A41C U148C — higher, -3.07
- U44A C63G C85U C103A — lower, ≤ -4.2
- C43U G50U U109A A150U — lower, ≤ -4.2
- A41C G58A G68A U104C A113C A147C — lower, ≤ -4.2
- A41U G59U C85U C87G U145G — lower, ≤ -4.2
- G42C U56G U61A — lower, ≤ -4.2
- G42C A60G — within 0.2 log units, -4.05
- G42A C54A C69U C85A U90G C116G C118G U127C — lower, ≤ -4.2
- U44A A66G G80C — lower, ≤ -4.2
- G42A C54G U82C G94U — lower, ≤ -4.2
- G42A C54U A66G A142U — lower, ≤ -4.2
- C43A C51G C93A A106C A107G G143U — lower, ≤ -4.2
- U44A G50A C96A G136U C149A — lower, ≤ -4.2
- A41G C85A A106U — lower, ≤ -4.2
- A41C U44A A91U G100U G124C — lower, ≤ -4.2
- G42A A52G U56A G70A A89U A98U C99U G141A — lower, ≤ -4.2
- C43A U53A A60C U61A C76A C87U C95G U146C U148G — lower, ≤ -4.2
- C43U C54A C93A U134A — lower, ≤ -4.2
- G42U G81C C125A — lower, ≤ -4.2
- G42C C57A U77G G88C A142U — lower, ≤ -4.2
- A41U C93A — higher, -3.19
- G42C C51A A64C C96A C99A — lower, ≤ -4.2
- G42C C93G — lower, ≤ -4.2
- A41G U53G — higher, -0.77
- U44A A60G G136A — lower, ≤ -4.2
- C43U C69U U77C C85G C96A A98U C105A — lower, ≤ -4.2
- G42U C54U C95G — lower, ≤ -4.2
- C43U C54U U56G U78C C85G C93G G133A G136U G140U — lower, ≤ -4.2
- C43U U55C G94A C105U A115U C125A — lower, ≤ -4.2
- U44A C129G G141U — lower, ≤ -4.2
- C43U G67C G86A — lower, ≤ -4.2
- A41U G50C C76U C93G A138G A150U — lower, ≤ -4.2
- U44A C54U U101G G140U — lower, ≤ -4.2
- C43G C54A C75A — lower, ≤ -4.2
- A41G G50C A52C G68A G92U C105A U135G G143A — lower, ≤ -4.2
- C43U A91C — lower, ≤ -4.2
- A41U G68C A91U U102C — lower, ≤ -4.2
